Assay results from PubChem BioAssay AID504832 (National Center for Advancing Translational Sciences (NCATS), 2011).
About 18,000 (5.8%) of roughly 310,000 compounds were called active. Inconclusive results, whose numbers are uncertain, are shown with a selection of clear calls. The call rests on the fitted dose curve; in most records, active means well fitted inhibition curve with a large enough effect; inconclusive means small, poorly fitted or top-dose-only effect, or another doubt; inactive means no such curve, though single readings can be large or run the other way. No potency is given beside an inconclusive call; the fits are too rough.

Experiment: Primary qHTS for delayed death inhibitors of the malarial parasite plastid, 48 hour incubation
Conditions: P. falciparum luciferase growth in erythrocytes; series mostly up to 28.7 µM; activity change, negative = inhibition: at the top concentration
Procedure, shortened: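 Compounds are pin-transferred into medium, infected erythrocytes (2% hematocrit, 0.1% parasitemia final) are added, and plates sit one parasite generation at 37 C in 5% CO2. Detection reagent is then added and luminescence measured.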
On the % scale 0 is the no-effect control and ±100 the full control effect; potency means the concentration at half of the fitted maximal effect; tags describe the fitted curve by direction and shape.

Row | SMILES | Potency | activity change, negative = inhibition
1 | CCCCc1ccc(NC(=O)CC(C)=O)cc1 | inconclusive [inhibitor, single point] | 
2 | CCOc1ccc(C(O)Cn2c(=N)n(CCN3CCCCC3)c3ccccc32)cc1 (stereo unspecified) | active: 4.65 µM | 
3 | O=C(NNC(=O)c1cccnc1SCc1cccc([N+](=O)[O-])c1)c1ccccn1 | active: 5.22 µM | 
4 | CC(=O)Nc1ccc(S(=O)(=O)N2CCCC(C(=O)N3CCN(c4ccccc4)CC3)C2)cc1 (stereo unspecified) | inconclusive [inhibitor, partial curve, poor fit] | 
5 | CCN(CC)S(=O)(=O)c1ccc2c(c1)c(=O)c(C(=O)NCCc1ccc(OC)c(OC)c1)cn2C | inconclusive [inhibitor, single point] | 
6 | CCn1c(SCC(=O)NCC2CCCO2)nc2cc(S(=O)(=O)N3CCCCC3)ccc21 (stereo unspecified) | inconclusive [inhibitor, partial curve] | 
7 | O=C(Nc1cnc2ccccn2c1=O)c1ccc(F)cc1 |  | inactive: 172%
8 | COc1ccc(OC)c(NC(=O)CN2CCC(C(=O)c3ccc(C)cc3)CC2)c1 | inconclusive [inhibitor, single point] | 
9 | COc1cccc(C(=O)NCCS(=O)(=O)NCCCc2ccccc2)c1 |  | inactive: 17.8%
10 | CCN(CC)Cc1ccc(NC(=O)c2sc3cc(Cl)ccc3c2Cl)cc1 | inconclusive [inhibitor, partial curve] | 
11 | COCCCC1CCN(C(=O)C2CCC(=O)N(CCc3ccccc3)C2)CC1 (stereo unspecified) | inconclusive [inhibitor, single point] | 
12 | CCC(=O)N1CCN(c2ccccc2NC(=O)COc2ccc(C(C)C)cc2)CC1 | active: 10.4 µM | 
13 | O=C(c1ccc(OC2CCN(Cc3ccccn3)CC2)cc1)N1CCCC(O)C1 (stereo unspecified) |  | inactive: 13.9%
14 | NS(=O)(=O)c1ccc(CCNC(=O)C(=O)c2cn(CC(=O)N3CCOCC3)c3ccccc23)cc1 |  | inactive: 8.62%
15 | O=C(CCCn1c(=O)[nH]c2ccccc2c1=O)NC1CCCCCC1 | inconclusive [inhibitor, single point] | 
16 | COc1ccc(CCN(C)C(=O)COc2ccc(N(C)S(=O)(=O)c3ccc(C)cc3)cc2)cc1OC | active: 9.28 µM | 
17 | NC(N)=NS(=O)(=O)c1ccc(N/C=C\C(=O)c2ccncc2)cc1 |  | inactive: 1.21%
18 | Cc1ccc(C)n1-c1cccc(NC(=O)c2ccccc2)c1 | inconclusive [inhibitor, single point] | 
19 | COc1ccc(OC)c(/C=C/c2c([N+](=O)[O-])c(=O)n(C)c(=O)n2C)c1 | inconclusive [inhibitor, partial curve, poor fit] | 
20 | O=C(Nc1ccc(F)cc1F)c1c(C(F)(F)F)ccnc1Oc1ccc(Cl)cc1 | inconclusive [inhibitor, single point] | 
21 | CS(=O)(=O)N1CCN(c2ccc(NC(=O)C(c3ccccc3)c3ccccc3)cc2)CC1 | inconclusive [inhibitor, single point] | 
22 | CCCCc1nc2ccccc2c(=O)n1NC(=O)c1c(O)c2c(n(CC(C)C)c1=O)CCCC2 | inconclusive [inhibitor, single point] | 
23 | Cn1c(CSc2ncn[nH]2)nc2ccccc21 |  | inactive: -1.46%
24 | O=[N+]([O-])c1cc(Cl)ccc1-c1nc(-c2ccncc2)no1 | inconclusive [inhibitor, single point] | 

Row | SMILES | Potency | activity change, negative = inhibition
25 | CCN(CC)C(=O)C1CCN(Cc2cccc(OCc3ccccc3)c2)CC1 | inconclusive [inhibitor, single point] | 
26 | O=C(NCCCN1CCCC1=O)[C@H](CSCc1ccccc1)N1Cc2ccccc2C1=O |  | inactive: 1.42%
27 | CCC(=O)Nc1ccc(Cl)c(NC(=S)NC(=O)c2cc3ccccc3o2)c1 |  | inactive: 16.7%
28 | C=CCN(c1ccc(Cl)cc1)S(=O)(=O)c1cccc(C(=O)O)c1 | inconclusive [inhibitor, full curve, poor fit] | 
29 | C[n+]1ccccc1/C=C/c1c(F)cccc1F | active: 13.1 µM | 
30 | CCOC(=O)c1nnn(-c2nonc2N)c1COc1cc(C)c(Cl)c(C)c1 | inconclusive [inhibitor, single point] | 
31 | COc1ccccc1C(c1nnnn1C(C)(C)C)N1CCN(C(=O)c2ccco2)CC1 (stereo unspecified) | active: 4.65 µM | 
32 | O=c1[nH][nH]c(C(F)(F)F)c1C=NCc1cccs1 | inconclusive [inhibitor, partial curve, poor fit] | 
33 | CN(C(=O)CCCOc1ccc2[nH]c(=O)ccc2c1)C1CCCCC1 | inconclusive [inhibitor, full curve, poor fit] | 
34 | CCn1c(NN=O)nc2ccccc21 |  | inactive: -10.7%
35 | O=C(NCCN1CCOCC1)C(=O)NCC1OCCN1S(=O)(=O)c1ccccc1 (stereo unspecified) |  | inactive: 3.19%
36 | O=C1C2CC=C(Cl)CC2C(=O)N1CCc1ccccc1 (stereo unspecified) | inconclusive [inhibitor, single point] | 
37 | O=C(NC(=S)NNC(=O)[C@H]1C[C@@H]1c1ccccc1)c1cccc(F)c1 |  | inactive: 96.3%
38 | CC(C)Cn1nc(C(=O)Nc2cccc(C(=O)NC3CC3)c2)c2ccccc2c1=O | inconclusive [inhibitor, partial curve, poor fit] | 
39 | NC(=O)c1nsc(C(=O)N(Cc2ccc(F)cc2)C(C(=O)NCC2CCCO2)c2ccc(F)cc2)c1N (stereo unspecified) | inconclusive [inhibitor, partial curve, poor fit] | 
40 | CCCCOc1ccc(C(=O)NCCCC(=O)N2CCCCC2)cc1 | inconclusive [inhibitor, single point] | 
41 | O=C(N/N=C/c1cccnc1)c1ccco1 |  | inactive: 58.3%
42 | O=C(c1cnc(-c2ccccc2)s1)c1ccc(Cl)cc1Cl | inconclusive [inhibitor, full curve, poor fit] | 
43 | CCCC(CCC)c1nnc(NC(=O)c2ccco2)s1 | inconclusive [inhibitor, full curve, poor fit] | 
44 | COc1cc(/C=C2\SC(=Nc3ccc(N4CCOCC4)cc3)N(C)C2=O)ccc1OC(C)C(=O)O (stereo unspecified) | inconclusive [inhibitor, full curve, poor fit] | 
45 | CCCCOc1ccc(C(=O)NCC(=O)NCC(c2cccs2)N2CCOCC2)cc1 (stereo unspecified) | inconclusive [inhibitor, single point] | 
46 | CCOC(=O)N1CCN(c2ncnc3c2[nH]c2ccc(F)cc23)CC1 | inconclusive [inhibitor, single point] | 
47 | Cc1[nH]c2ccccc2c1C(=O)C(=O)NCCC1=CCCCC1 | active: 2.94 µM | 
48 | O=C(CCS(=O)(=O)Cc1ccccc1)NCC1CCCO1 (stereo unspecified) |  | inactive: 1.35%

Row | SMILES | Potency | activity change, negative = inhibition
49 | Cc1c(C(=O)N(Cc2cccc(Br)c2)C2CCS(=O)(=O)C2)oc2ccc(F)cc12 (stereo unspecified) | inconclusive [inhibitor, partial curve] | 
50 | CCOc1ccc2ccccc2c1CNCCN1CCOCC1 | active: 13.1 µM | 
51 | CC(C)(C)NC(=O)C1CCN(S(=O)(=O)c2cccc(C(F)(F)F)c2)CC1 |  | inactive: -19.1%
52 | Cc1nc(=O)c(-c2ccccc2)c(C)n1-c1ccccc1C(=O)O |  | inactive: 8.71%
53 | O=C(Cc1ccccc1)Nc1cccc(S(=O)(=O)N2CCCCCC2)c1 | inconclusive [inhibitor, single point] | 
54 | O=C(NCCc1ccccn1)c1cccc(S(=O)(=O)N2CCCCCC2)c1 | inconclusive [inhibitor, full curve, poor fit] | 
55 | CCC(=O)N1c2ccc(S(=O)(=O)CCC(=O)NCc3ccc4c(c3)OCO4)cc2CC1C (stereo unspecified) | inconclusive [inhibitor, partial curve, poor fit] | 
56 | Cc1ccc(C2=NN(C(=O)CCC(=O)O)C(c3ccc4c(c3)OCO4)C2)cc1 (stereo unspecified) | inconclusive [inhibitor, single point] | 
57 | O=C(Nc1ccccc1)N1CCC(C(=O)N2CCN(Cc3ccccc3)CC2)CC1 |  | inactive: -15.4%
58 | COc1ccc(S(=O)(=O)n2ccc(C)n2)cc1C |  | inactive: 6.78%
59 | COc1ccc(-c2n[nH]c(=S)n2N)c(OC)c1 |  | inactive: 9.16%
60 | COc1ccc(N2C(=O)CC2(C#N)c2ccc(OCc3ccccc3)cc2)cc1 (stereo unspecified) |  | inactive: 9.66%
61 | COc1cccc(CN(C)CC(=O)Nc2cc3oc4ccccc4c3cc2OC)c1 | inconclusive [inhibitor, single point] | 
62 | Clc1ccc2nc(C3CCN(Cc4nnnn4C4CCCCC4)CC3)[nH]c2c1 | active: 11.7 µM | 
63 | CCc1nnc(NC(=O)c2c(C)nn(-c3ccccc3)c2Cl)s1 |  | inactive: 0.746%
64 | COc1ccc(C2C3=C(CCCC3=O)NC3=C2C(=O)c2ccccc23)cc1 (stereo unspecified) | inconclusive [inhibitor, partial curve] | 
65 | O=[N+]([O-])c1ccccc1/C=C/C=N/n1c(-c2ccccc2F)n[nH]c1=S |  | inactive: 8.18%
66 | COc1ccc2[nH]c3c(c2c1)CCN1C(=O)N([C@@H](C)C(=O)NC2CCCCC2C)C(=O)[C@]31C (stereo partly specified) | active: 9.28 µM | 
67 | COc1cc2c(cc1OC)/C(=C/C(=O)c1ccc([N+](=O)[O-])c(C)c1)NCC2 | active: 9.28 µM | 
68 | O=C(COc1ccc(Cl)cc1Br)Nc1cccc(S(=O)(=O)N2CCCC2)c1 | inconclusive [inhibitor, single point] | 
69 | CC1CCCCN1CCNC(=O)C1CCCN(c2ncnc3c2nc2n3CCCCC2)C1 (stereo unspecified) | inconclusive [inhibitor, single point] | 
70 | OCC1(Cc2ccc(Cl)cc2)CCN(Cc2ccc3nsnc3c2)CC1 | inconclusive [inhibitor, partial curve, poor fit] | 
71 | COc1ccc(CC(=O)O/N=C(\N)Cc2cccc3ccccc23)cc1OC | active: 10.4 µM | 
